Test results reported in PubChem BioAssay AID938 (National Center for Advancing Translational Sciences (NCATS), 2007).
Among all 73,000 compounds or so, about 1,800 (2.5%) were called active. The shares of active, inactive and inconclusive entries below differ from those in the screen. Calls come from the whole dose curve; as a rule, active = well fitted activation curve with a large enough effect; inconclusive = small, poorly fitted or top-dose-only effect; inactive = no such curve, though single readings can be large or run the other way. No potency is given beside an inconclusive call; the fits are too rough.

Assay: qHTS Assay for Agonists of the Thyroid Stimulating Hormone Receptor: Activators of Intracellular cAMP Concentrations in Parental HEK 293; note: nearly all actives have a fitted effect of over 55% in size; for activation: % of control where 0% means no effect
Settings: parental HEK293 CNG cAMP sensor, membrane potential fluorescence; activation: at 57.1 µM (top of the series) unless noted
Outline: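 Counterscreen for endogenous-receptor signalling: CNG-channel HEK 293 cells report cAMP rise by membrane depolarization. After 60 min dye equilibration with 100 uM RO 20-1724, compounds incubated 30 min before bottom-read fluorescence at 590 nm.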
Potency is the fitted concentration of half-maximal effect; tags give direction and shape of the fitted curve.

Row | SMILES | Potency | activation
1 | C=CCSc1nc(C)c(CC(=O)OCC(C)C)c(=O)[nH]1 | inconclusive [activator, single point] | 
2 | CCOc1cc(S(=O)(=O)n2c(C)nc3ccccc32)ccc1F | inconclusive [activator, full curve] | 
3 | COc1ccc(Cn2c(=O)n(Cc3ccco3)c(=N)c3c4c(sc32)COC(C)(C)C4)cc1 | inactive | 
4 | COc1ccccc1-c1ccc2ncnc(NCCNC(C)=O)c2c1 | inconclusive [activator, single point] | 
5 | COc1cccc(-c2nc(CS(=O)(=O)CC(=O)Nc3cccc(C)c3C)c(C)o2)c1 | active: 25.1 µM | 
6 | COc1cccc(C(=O)Nc2cccc(-c3nc4ncccc4o3)c2C)c1 | active: 15.8 µM | 
7 | CO[C@@H]1CC[C@@]2(C)[C@@H](CC[C@@]3(C)[C@H]2CC=C2[C@H]4CC(C)(C)[C@H](O)[C@@H](OC(C)=O)[C@]4(CO)[C@H](O)C[C@]23C)[C@@]1(C)CO (tested in a mixture with another compound) | inactive | 
8 | CCOC(=O)c1c(C)n(O)c2ccc(Cl)cc2c1=O | inconclusive [activator, single point] | 
9 | CCn1ncc(Cl)c1C(=O)Nc1cc(Cl)ccc1Cl | inconclusive [activator, single point] | 
10 | CCCCCSc1nnc(-c2cc(Br)ccc2N)c(=O)[nH]1 | inconclusive [activator, partial curve, poor fit] | 
11 | O=C1CCCC=C1[C@@H](O)COCc1ccccc1 |  | inactive: 6.79% [at 11.4 µM]
12 | O=C(Nc1ccccc1C(=O)N1CCOCC1)c1ccco1 | inconclusive [activator, single point] | 
13 | Cc1ccc(C(=O)OCc2cn3ccccc3n2)cc1 | inconclusive [activator, single point] | 
14 | Cc1cc2cc3c(cc2nc1SCC(=O)N1CCN(C(=O)c2ccco2)CC1)OCO3 | inconclusive [activator, partial curve] | 
15 | CCOC(=O)C1C(=O)C=C(C)C(C(=O)OCC)C1c1ccc(OC)cc1 (configuration not stated) | inconclusive [activator, partial curve] | 
16 | COc1ccc(CCNS(=O)(=O)c2ccc3c(c2)oc(=O)n3C)cc1OC | inactive | 
17 | Cc1ccc(-c2nnc3sc(CCc4ccccc4)nn23)cc1 | inconclusive [activator, single point] | 
18 | CC(C)Sc1nc2sc3c(c2c2nnc(SCC(=O)NCc4ccco4)n12)CCCC3 | inconclusive [activator, single point] | 
19 | CCOc1ccc(-c2nc(CSCC(=O)NCc3ccco3)c(C)o2)cc1 | inconclusive [activator, partial curve] | 
20 | COc1cc(OC)cc(-c2nnc(SCC(=O)N(Cc3ccccc3)C(C)(C)C)o2)c1 | inconclusive [activator, single point] | 
21 | O=C(CN1CCN(c2nc(-c3ccc(F)cc3)cs2)CC1)Nc1ccc2c(c1)OCO2 | inconclusive [activator, full curve, poor fit] | 
22 | Cc1ccc(Cn2ccc(NC(=O)c3cc(C(C)C)on3)n2)cc1 | inconclusive [activator, partial curve] | 
23 | O=C(Nc1cccc2c1CCCC2)c1ccco1 | inconclusive [activator, partial curve] | 
24 | CCCCCNC(=O)CCn1c(=O)oc2ccccc21 | inactive | 

Row | SMILES | Potency | activation
25 | COC(=O)c1oc2ccc(Br)cc2c1-n1cccc1 | active: 31.6 µM | 
26 | CCCOc1ccc(S(=O)(=O)NCCN2CCOCC2)c2ccccc12 | inconclusive [activator, partial curve] | 
27 | Cn1c(NC(=O)c2cccc(Cn3cc(Cl)cn3)c2)nc2ccccc21 | inconclusive [activator, partial curve] | 
28 | CCOc1ccc(S(=O)(=O)Nc2cc(OC)ccc2OC)cc1 | inconclusive [activator, partial curve] | 
29 | Cc1cc(CN(C)C)c(O)c(C2(C)CCCCC2)c1 | inconclusive [activator, single point] | 
30 | Cc1c(S(=O)(=O)Nc2cc(Cl)ccc2Cl)c(=O)n(C)c(=O)n1C | inconclusive [activator, single point] | 
31 | Cc1nc(SCc2c(F)cccc2Cl)c2c(=O)n(C)c(=O)n(C)c2n1 | inconclusive [activator, single point] | 
32 | Cc1ccc(S(=O)(=O)N2CCOCC2)cc1C(=O)Nc1ccccn1 | inconclusive [activator, full curve] | 
33 | Cc1nc2ccccc2c(=O)n1/N=C/c1c(O)ccc2oc3c(c12)CCCC3 | active: 15.8 µM | 
34 | COc1cccc(NC(=O)CCN2CCN(c3ccccc3F)CC2)c1 | active: 25.1 µM | 
35 | O=C(c1nc2ccccc2s1)N1CCN(c2ccccn2)CC1 | inconclusive [activator, single point] | 
36 | CC1Cc2nc(SCC(=O)NCc3ccco3)n(Cc3ccccc3)c(=O)c2S1 (configuration not stated) | inconclusive [activator, single point] | 
37 | CCOC(=O)Cn1nnnc1C(CC)N(Cc1cc2ccc(C)cc2[nH]c1=O)C1CCCC1 (configuration not stated) | active: 15.8 µM | 
38 | CC(=C1C2C=CC1C1C(=O)NC(=O)C21)c1ccccc1 (configuration not stated) | inconclusive [activator, single point] | 
39 | O=C(Cn1cnc2ccccc21)Nc1cc(C(F)(F)F)ccc1N1CCOCC1 | inconclusive [activator, single point] | 
40 | Clc1ccccc1-c1nccc(-n2ccnc2)n1 | inactive | 
41 | CCC[C@@H]1C[C@@]1(CCC)C(NC(=O)c1cccs1)c1ccc(Cl)cc1 (some centres not stated) | inconclusive [activator, full curve] | 
42 | CCCS(=O)(=O)NCCc1csc(-c2cccnc2)n1 | inactive | 
43 | Cc1ccc(C)c(Cn2c(=O)n(CCCC(=O)NCc3ccco3)c(=O)c3ccccc32)c1 | inconclusive [activator, single point] | 
44 | O=C(CN1CCN(c2ccccn2)CC1)NCCc1ccccc1 | inactive | 
45 | Cc1ccc2c(c1)N(CC(=O)N1CCCc3ccccc31)C(=O)C(C)O2 (configuration not stated) |  | inconclusive: 38.6% [activator]
46 | CSc1nnc2c3ccccc3n(Cc3ccccc3)c2n1 | active: 20 µM | 
47 | FC(F)(F)c1ccccc1-c1cc(NCc2ccccc2)ncn1 | inconclusive [activator, full curve] | 
48 | Cc1cc(C(=O)COC(=O)CN(C)S(=O)(=O)c2ccc(Cl)cc2)c(C)n1CC1CCCO1 (configuration not stated) | inactive | 

Row | SMILES | Potency | activation
49 | CCOC(=O)CSc1nnc(CNc2ccccc2Cl)n1-c1ccccc1 |  | inconclusive: 31.3% [activator]
50 | CCOC(=O)C1CCN(c2ncnc3c2oc2ccc(Cl)cc23)CC1 | active: 25.1 µM | 
51 | COc1cc(/C=C(\C#N)C(N)=O)cc(CSc2nc3ccccc3s2)c1O | inactive | 
52 | C[C@H](C(=O)c1ccncc1)c1ccccn1 |  | inactive: 5.84% [at 11.4 µM]
53 | CCCOc1ccc(C(=O)NCc2cccnc2)cc1 | inconclusive [activator, single point] | 
54 | CCCCC(=O)N(c1ccc(OCC)cc1)C1C=CS(=O)(=O)C1 (configuration not stated) | inactive | 
55 | Cc1nn2cc(-c3ccc(-c4ccccc4)cc3)nc2s1 | inactive | 
56 | COc1ccc(NC(=O)c2ccc(Cl)c(S(=O)(=O)N3CCc4ccccc4C3)c2)cn1 | inconclusive [activator, single point] | 
57 | O=C(O)CCCSc1nc2ccccc2s1 |  | inactive: 22.8% [at 11.4 µM]
58 | O=C(CN1C(=O)CCSc2ccccc21)Nc1cccc(F)c1 | inactive | 
59 | O=C(CN1CCCC1)NCC1(c2ccccc2)CCOCC1 | inconclusive [activator, full curve, poor fit] | 
60 | Cc1sc2ncnc(NCc3ccco3)c2c1C | inconclusive [activator, partial curve] | 
61 | COc1ccccc1NC(=O)C1CC(=O)OC1c1ccccc1 (configuration not stated) | inconclusive [activator, single point] | 
62 | Cc1ccc(Cn2c(SCC(N)=O)nc3c2c(=O)n(C)c(=O)n3C)cc1 | inconclusive [activator, single point] | 
63 | COCCn1c(=O)c(C)nc2cnc(N3CCNCC3)nc21 | inactive | 
64 | COC(=O)C/C=C\[C@@H](C)[C@@H](/C=N\O[C@@H](C)CN1CCCc2nc(C)c(C)cc21)OC |  | inactive: 24% [at 11.4 µM]
65 | CC1(C)CC(=O)C2=C(C1)Nc1ccccc1NC2c1ccccn1 (configuration not stated) | inconclusive [activator, single point] | 
66 | Nc1ccc(S(=O)(=O)Nc2ccnn2-c2ccccc2)cc1 | inconclusive [activator, partial curve] | 
67 | CCOC(=O)c1ccc(S(=O)(=O)N2CCN(CC3CC=CCC3)CC2)cc1 (configuration not stated) | inconclusive [activator, partial curve] | 
68 | Cc1ccc2c(c1)N(Cc1ccc3c(c1)OCO3)C(=O)C(C)O2 (configuration not stated) | inconclusive [activator, single point] | 
69 | Cc1[nH]n2c(=O)cc(C(C)(C)C)nc2c1-c1ccccc1 | inconclusive [activator, single point] | 
70 | Cc1ccc(C2C(C#N)=C(N)Oc3n[nH]c(-c4cccs4)c32)s1 (configuration not stated) | inactive | 
71 | COc1ccccc1NC(=O)Cn1nnc(-c2ccccc2NC(=O)c2ccco2)n1 | inactive | 
72 | CCCCCC(=O)c1cc(CC(C(=O)OC)C(=O)OC)cc2cc(OC)c(OC)cc12 |  | inactive: 22.8% [at 11.4 µM]
